Measurements: the supplement of paper PMC12423691
Some of the results follow. Binding of human transcription factors and regulators to the viral nucleoprotein by AlphaScreen, crude cell-free proteins, amounts not normalised, one pass. Fold of the Venus control; higher = more signal. No active / inactive call. Single-pass screen; sequences are the whole Swiss-Prot entries looked up by name.

B1: FZD4, Q9ULV1 (protein)
chain: MAWRGAGPSVPGAPGGVGLSLGLLLQLLLLLGPARGFGDEEERRCDPIRISMCQNLGYNVTKMPNLVGHELQTDAELQLTTFTPLIQYGCSSQLQFFLCSVYVPMCTEKINIPIGPCGGMCLSVKRRCEPVLKEFGFAWPESLNCSKFPPQNDHNHMCMEGPGDEEVPLPHKTPIQPGEECHSVGTNSDQYIWVKRSLNCVLKCGYDAGLYSRSAKEFTDIWMAVWASLCFISTAFTVLTFLIDSSRFSYPERPIIFLSMCYNIYSIAYIVRLTVGRERISCDFEEAAEPVLIQEGLKNTGCAIIFLLMYFFGMASSIWWVILTLTWFLAAGLKWGHEAIEMHSSYFHIAAWAIPAVKTIVILIMRLVDADELTGLCYVGNQNLDALTGFVVAPLFTYLVIGTLFIAAGLVALFKIRSNLQKDGTKTDKLERLMVKIGVFSVLYTVPATCVIACYFYEISNWALFRYSADDSNMAVEMLKIFMSLLVGITSGMWIWSAKTLHTWQKCSNRLVNSGKVKREKRGNGWVKPGKGSETVV
B2: POU4F1, Q01851 (protein)
chain: MMSMNSKQPHFAMHPTLPEHKYPSLHSSSEAIRRACLPTPPLQSNLFASLDETLLARAEALAAVDIAVSQGKSHPFKPDATYHTMNSVPCTSTSTVPLAHHHHHHHHHQALEPGDLLDHISSPSLALMAGAGGAGAAAGGGGAHDGPGGGGGPGGGGGPGGGPGGGGGGGPGGGGGGPGGGLLGGSAHPHPHMHSLGHLSHPAAAAAMNMPSGLPHPGLVAAAAHHGAAAAAAAAAAGQVAAASAAAAVVGAAGLASICDSDTDPRELEAFAERFKQRRIKLGVTQADVGSALANLKIPGVGSLSQSTICRFESLTLSHNNMIALKPILQAWLEEAEGAQREKMNKPELFNGGEKKRKRTSIAAPEKRSLEAYFAVQPRPSSEKIAAIAEKLDLKKNVVRVWFCNQRQKQKRMKFSATY
B3: TEF, Q10587 (protein)
chain: MSDAGGGKKPPVDPQAGPGPGPGRAAGERGLSGSFPLVLKKLMENPPREARLDKEKGKEKLEEDEAAAASTMAVSASLMPPIWDKTIPYDGESFHLEYMDLDEFLLENGIPASPTHLAHNLLLPVAELEGKESASSSTASPPSSSTAIFQPSETVSSTESSLEKERETPSPIDPNCVEVDVNFNPDPADLVLSSVPGGELFNPRKHKFAEEDLKPQPMIKKAKKVFVPDEQKDEKYWTRRKKNNVAAKRSRDARRLKENQITIRAAFLEKENTALRTEVAELRKEVGKCKTIVSKYETKYGPL
B4: ZIC1, Q15915 (protein)
chain: MLLDAGPQYPAIGVTTFGASRHHSAGDVAERDVGLGINPFADGMGAFKLNPSSHELASAGQTAFTSQAPGYAAAAALGHHHHPGHVGSYSSAAFNSTRDFLFRNRGFGDAAAAASAQHSLFAASAGGFGGPHGHTDAAGHLLFPGLHEQAAGHASPNVVNGQMRLGFSGDMYPRPEQYGQVTSPRSEHYAAPQLHGYGPMNVNMAAHHGAGAFFRYMRQPIKQELICKWIEPEQLANPKKSCNKTFSTMHELVTHVTVEHVGGPEQSNHICFWEECPREGKPFKAKYKLVNHIRVHTGEKPFPCPFPGCGKVFARSENLKIHKRTHTGEKPFKCEFEGCDRRFANSSDRKKHMHVHTSDKPYLCKMCDKSYTHPSSLRKHMKVHESSSQGSQPSPAASSGYESSTPPTIVSPSTDNPTTSSLSPSSSAVHHTAGHSALSSNFNEWYV
B5: ARID3B, Q8IVW6 (protein)
chain: MEPLQQQQQQQQQQQKQPHLAPLQMDAREKQGQQMREAQFLYAQKLVTQPTLLSATAGRPSGSTPLGPLARVPPTAAVAQVFERGNMNSEPEEEDGGLEDEDGDDEVAEVAEKETQAASKYFHVQKVARQDPRVAPMSNLLPAPGLPPHGQQAKEDHTKDASKASPSVSTAGQPNWNLDEQLKQNGGLAWSDDADGGRGREISRDFAKLYELDGDPERKEFLDDLFVFMQKRGTPINRIPIMAKQILDLYMLYKLVTEKGGLVEIINKKIWREITKGLNLPTSITSAAFTLRTQYMKYLYAYECEKKALSSPAELQAAIDGNRREGRRPSYSSSLFGYSPAAATAAAAAGAPALLSPPKIRFPILGLGSSSGTNTSSPRISPATTLRKGDGAPVTTVPVPNRLAVPVTLASQQAGTRTAALEQLRERLESGEPAEKKASRLSEEEQRLVQQAFQRNFFSMARQLPMKIRINGRAEDRAEASAAALNLTTSSIGSINMSVDIDGTTYAGVLFAQKPVVHLITGSAPQSLGSSASSSSSSHCSPSPTSSRGTPSAEPSTSWSL
B6: PRMT2, P55345 (protein)
chain: MATSGDCPRSESQGEEPAECSEAGLLQEGVQPEEFVAIADYAATDETQLSFLRGEKILILRQTTADWWWGERAGCCGYIPANHVGKHVDEYDPEDTWQDEEYFGSYGTLKLHLEMLADQPRTTKYHSVILQNKESLTDKVILDVGCGTGIISLFCAHYARPRAVYAVEASEMAQHTGQLVLQNGFADIITVYQQKVEDVVLPEKVDVLVSEWMGTCLLFEFMIESILYARDAWLKEDGVIWPTMAALHLVPCSADKDYRSKVLFWDNAYEFNLSALKSLAVKEFFSKPKYNHILKPEDCLSEPCTILQLDMRTVQISDLETLRGELRFDIRKAGTLHGFTAWFSVHFQSLQEGQPPQVLSTGPFHPTTHWKQTLFMMDDPVPVHTGDVVTGSVVLQRNPVWRRHMSVALSWAVTSRQDPTSQKVGEKVFPIWR
B7: TRIM15, Q9C019 (protein)
chain: MPATPSLKVVHELPACTLCAGPLEDAVTIPCGHTFCRLCLPALSQMGAQSSGKILLCPLCQEEEQAETPMAPVPLGPLGETYCEEHGEKIYFFCENDAEFLCVFCREGPTHQAHTVGFLDEAIQPYRDRLRSRLEALSTERDEIEDVKCQEDQKLQVLLTQIESKKHQVETAFERLQQELEQQRCLLLARLRELEQQIWKERDEYITKVSEEVTRLGAQVKELEEKCQQPASELLQDVRVNQSRCEMKTFVSPEAISPDLVKKIRDFHRKILTLPEMMRMFSENLAHHLEIDSGVITLDPQTASRSLVLSEDRKSVRYTRQKKSLPDSPLRFDGLPAVLGFPGFSSGRHRWQVDLQLGDGGGCTVGVAGEGVRRKGEMGLSAEDGVWAVIISHQQCWASTSPGTDLPLSEIPRGVRVALDYEAGQVTLHNAQTQEPIFTFTASFSGKVFPFFAVWKKGSCLTLKG
B8: PBX2, P40425 (protein)
chain: MDERLLGPPPPGGGRGGLGLVSGEPGGPGEPPGGGDPGGGSGGVPGGRGKQDIGDILQQIMTITDQSLDEAQAKKHALNCHRMKPALFSVLCEIKEKTGLSIRSSQEEEPVDPQLMRLDNMLLAEGVAGPEKGGGSAAAAAAAAASGGGVSPDNSIEHSDYRSKLAQIRHIYHSELEKYEQACNEFTTHVMNLLREQSRTRPVAPKEMERMVSIIHRKFSAIQMQLKQSTCEAVMILRSRFLDARRKRRNFSKQATEVLNEYFYSHLSNPYPSEEAKEELAKKCGITVSQVSNWFGNKRIRYKKNIGKFQEEANIYAVKTAVSVTQGGHSRTSSPTPPSSAGSGGSFNLSGSGDMFLGMPGLNGDSYSASQVESLRHSMGPGGYGDNLGGGQMYSPREMRANGSWQEAVTPSSVTSPTEGPGSVHSDTSN
B9: HEY1, Q9Y5J3 (protein)
chain: MKRAHPEYSSSDSELDETIEVEKESADENGNLSSALGSMSPTTSSQILARKRRRGIIEKRRRDRINNSLSELRRLVPSAFEKQGSAKLEKAEILQMTVDHLKMLHTAGGKGYFDAHALAMDYRSLGFRECLAEVARYLSIIEGLDASDPLRVRLVSHLNNYASQREAASGAHAGLGHIPWGTVFGHHPHIAHPLLLPQNGHGNAGTTASPTEPHHQGRLGSAHPEAPALRAPPSGSLGPVLPVVTSASKLSPPLLSSVASLSAFPFSFGSFHLLSPNALSPSAPTQAANLGKPYRPWGTEIGAF
B10: RLIM, Q9NVW2 (protein)
chain: MENSDSNDKGSGDQSAAQRRSQMDRLDREEAFYQFVNNLSEEDYRLMRDNNLLGTPGESTEEELLRRLQQIKEGPPPQNSDENRGGDSSDDVSNGDSIIDWLNSVRQTGNTTRSGQRGNQSWRAVSRTNPNSGDFRFSLEINVNRNNGSQNSENENEPSARRSSGENVENNSQRQVENPRSESTSARPSRSERNSTEALTEVPPTRGQRRARSRSPDHRRTRARAERSRSPLHPMSEIPRRSHHSISSQTFEHPLVNETEGSSRTRHHVTLRQQISGPELLSRGLFAASGTRNASQGAGSSDTAASGESTGSGQRPPTIVLDLQVRRVRPGEYRQRDSIASRTRSRSQTPNNTVTYESERGGFRRTFSRSERAGVRTYVSTIRIPIRRILNTGLSETTSVAIQTMLRQIMTGFGELSYFMYSDSDSEPTGSVSNRNMERAESRSGRGGSGGGSSSGSSSSSSSSSSSSSSSSSSSSPSSSSGGESSETSSDLFEGSNEGSSSSGSSGARREGRHRAPVTFDESGSLPFLSLAQFFLLNEDDDDQPRGLTKEQIDNLAMRSFGENDALKTCSVCITEYTEGNKLRKLPCSHEYHVHCIDRWLSENSTCPICRRAVLASGNRESVV
B11: MLLT10, P55197 (protein)
chain: MVSSDRPVSLEDEVSHSMKEMIGGCCVCSDERGWAENPLVYCDGHGCSVAVHQACYGIVQVPTGPWFCRKCESQERAARVRCELCPHKDGALKRTDNGGWAHVVCALYIPEVQFANVSTMEPIVLQSVPHDRYNKTCYICDEQGRESKAATGACMTCNKHGCRQAFHVTCAQFAGLLCEEEGNGADNVQYCGYCKYHFSKLKKSKRGSNRSYDQSLSDSSSHSQDKHHEKEKKKYKEKDKHKQKHKKQPEPSPALVPSLTVTTEKTYTSTSNNSISGSLKRLEDTTARFTNANFQEVSAHTSSGKDVSETRGSEGKGKKSSAHSSGQRGRKPGGGRNPGTTVSAASPFPQGSFSGTPGSVKSSSGSSVQSPQDFLSFTDSDLRNDSYSHSQQSSATKDVHKGESGSQEGGVNSFSTLIGLPSTSAVTSQPKSFENSPGDLGNSSLPTAGYKRAQTSGIEEETVKEKKRKGNKQSKHGPGRPKGNKNQENVSHLSVSSASPTSSVASAAGSITSSSLQKSPTLLRNGSLQSLSVGSSPVGSEISMQYRHDGACPTTTFSELLNAIHNGIYNSNDVAVSFPNVVSGSGSSTPVSSSHLPQQSSGHLQQVGALSPSAVSSAAPAVATTQANTLSGSSLSQAPSHMYGNRSNSSMAALIAQSENNQTDQDLGDNSRNLVGRGSSPRGSLSPRSPVSSLQIRYDQPGNSSLENLPPVAASIEQLLERQWSEGQQFLLEQGTPSDILGMLKSLHQLQVENRRLEEQIKNLTAKKERLQLLNAQLSVPFPTITANPSPSHQIHTFSAQTAPTTDSLNSSKSPHIGNSFLPDNSLPVLNQDLTSSGQSTSSSSALSTPPPAGQSPAQQGSGVSGVQQVNGVTVGALASGMQPVTSTIPAVSAVGGIIGALPGNQLAINGIVGALNGVMQTPVTMSQNPTPLTHTTVPPNATHPMPATLTNSASGLGLLSDQQRQILIHQQQFQQLLNSQQLTPEQHQAFLYQLMQHHHQQHHQPELQQLQIPGPTQIPINNLLAGTQAPPLHTATTNPFLTIHGDNASQKVARLSDKTGPVAQEKS

Target: nucleoprotein N of Crimean-Congo hemorrhagic fever virus
Experiment: AlphaScreen luminescence signal relative to Venus negative control (fold); higher = stronger binding to CCHFV N
Description: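 AlphaScreen binding of cell-free made, FLAG-GST-tagged human transcription factors and regulators (crude translation products) to biotinylated N protein; signal as fold of the FLAG-GST-Venus control. One pass.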

Binder	AlphaScreen luminescence signal
B1	2.51
B2	3.02
B3	5.4
B4	14.4
B5	1.21
B6	2.28
B7	2.14
B8	2.42
B9	1.95
B10	2.93
B11	1.3
